# Experimental data published in PMC12831459.
# No constants are given. Whether binding was seen depends on the method and setting. Binding seen in cells or lysates may run through a third protein. Some binding calls cover weakened binding; strength is not graded here. For some of these results: Sequences can lack the tags named with a protein.
# T1: GST-SMAD4 (full-length, WT) (human), Q13485
# T1 chain: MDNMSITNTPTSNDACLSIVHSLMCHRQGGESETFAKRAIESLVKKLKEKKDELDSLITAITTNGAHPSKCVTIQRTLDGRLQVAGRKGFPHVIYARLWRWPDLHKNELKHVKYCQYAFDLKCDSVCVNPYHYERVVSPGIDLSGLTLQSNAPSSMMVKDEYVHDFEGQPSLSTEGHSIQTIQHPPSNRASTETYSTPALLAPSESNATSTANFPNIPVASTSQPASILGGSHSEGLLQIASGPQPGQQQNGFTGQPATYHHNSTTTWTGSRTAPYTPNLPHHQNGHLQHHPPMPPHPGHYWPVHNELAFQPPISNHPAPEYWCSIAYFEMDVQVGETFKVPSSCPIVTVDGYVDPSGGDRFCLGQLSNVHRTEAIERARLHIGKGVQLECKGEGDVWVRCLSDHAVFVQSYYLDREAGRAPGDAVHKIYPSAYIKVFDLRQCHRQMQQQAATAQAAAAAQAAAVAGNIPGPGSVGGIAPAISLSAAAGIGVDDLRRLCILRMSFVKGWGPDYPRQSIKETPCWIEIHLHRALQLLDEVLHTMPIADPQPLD
# Tests used:
# [1] = molecular target: GST-SMAD4 (full-length, WT) (human) (UniProt Q13485); assay: pull-down; GST-pulldown from lysates of HEK293T cells co-expressing a GST-tagged and a VF-tagged protein, then immunoblotting; in some panels cells treated with TGF-β (10 ng/ml, 4 h), SB431542 (10 μM, 1 h), ionomycin 10 μM + PMA 1 μM (4 h) or CsA (10 μM, 1 h)
# [2] = molecular target: T1, GST-SMAD4 (full-length, WT) (human), …; assay: as above; conditions: remark: other sources report otherwise
# [3] = molecular target: SMAD4 (endogenous) (human (endogenous in Panc-1, Jurkat, MIA-PaCa-2, Capan-2)) (UniProt Q13485); assay: co-IP; endogenous proteins; SMAD4 immunoprecipitated, IgG as negative control; Panc-1, Jurkat, MIA-PaCa-2 and Capan-2 cells
binder,measurement,setting,value
"VF-tagged NFATc1 T2, truncation of DBD and CD (426-716 amino acids) (domain or fragment, UniProt O95644-2 426-716) YELRIEVQPKSHHRAHYETEGSRGAVKASAGGHPIVQLHGYLENEPLMLQLFIGTADDRLLRPHAFYQVHRITGKTVSTTSHEAILSNTKVLEIPLLPENSMRAVIDCAGILKLRNSDIELRKGETDIGRKNTRVRLVFRVHVPQPSGRTLSLQVASNPIECSQRSAQELPLVEKQSTDSYPVVGGKKMVLSGHNFLQDSKVIFVEKAPDGHHVWEMEAKTDRDLCKPNSLVVEIPPFRNQRITSPVHVSFYVCNGKRKRSQYQRFTYLPANGNAIFLTVSREHERVGCFF",binding,[1],binds
"VF-tagged NFATc1 R484A/L485A (protein, UniProt O95644-2 1-716) MPSTSFPVPSKFPLGPAAAVFGRGETLGPAPRAGGTMKSAEEEHYGYASSNVSPALPLPTAHSTLPAPCHNLQTSTPGIIPPADHPSGYGAALDGGPAGYFLSSGHTRPDGAPALESPRIEITSCLGLYHNNNQFFHDVEVEDVLPSSKRSPSTATLSLPSLEAYRDPSCLSPASSLSSRSCNSEASSYESNYSYPYASPQTSPWQSPCVSPKTTDPEEGFPRGLGACTLLGSPRHSPSTSPRASVTEESWLGARSSRPASPCNKRKYSLNGRQPPYSPHHSPTPSPHGSPRVSVTDDSWLGNTTQYTSSAIVAAINALTTDSSLDLGDGVPVKSRKTTLEQPPSVALKVEPVGEDLGSPPPPADFAPEDYSSFQHIRKGGFCDQYLAVPQHPYQWAKPKPLSPTSYMSPTLPALDWQLPSHSGPYELRIEVQPKSHHRAHYETEGSRGAVKASAGGHPIVQLHGYLENEPLMLQLFIGTADDAALRPHAFYQVHRITGKTVSTTSHEAILSNTKVLEIPLLPENSMRAVIDCAGILKLRNSDIELRKGETDIGRKNTRVRLVFRVHVPQPSGRTLSLQVASNPIECSQRSAQELPLVEKQSTDSYPVVGGKKMVLSGHNFLQDSKVIFVEKAPDGHHVWEMEAKTDRDLCKPNSLVVEIPPFRNQRITSPVHVSFYVCNGKRKRSQYQRFTYLPANGNAIFLTVSREHERVGCFF",binding,[1],binds
"VF-tagged NFATc1 T551A (protein, UniProt O95644-2 1-716) MPSTSFPVPSKFPLGPAAAVFGRGETLGPAPRAGGTMKSAEEEHYGYASSNVSPALPLPTAHSTLPAPCHNLQTSTPGIIPPADHPSGYGAALDGGPAGYFLSSGHTRPDGAPALESPRIEITSCLGLYHNNNQFFHDVEVEDVLPSSKRSPSTATLSLPSLEAYRDPSCLSPASSLSSRSCNSEASSYESNYSYPYASPQTSPWQSPCVSPKTTDPEEGFPRGLGACTLLGSPRHSPSTSPRASVTEESWLGARSSRPASPCNKRKYSLNGRQPPYSPHHSPTPSPHGSPRVSVTDDSWLGNTTQYTSSAIVAAINALTTDSSLDLGDGVPVKSRKTTLEQPPSVALKVEPVGEDLGSPPPPADFAPEDYSSFQHIRKGGFCDQYLAVPQHPYQWAKPKPLSPTSYMSPTLPALDWQLPSHSGPYELRIEVQPKSHHRAHYETEGSRGAVKASAGGHPIVQLHGYLENEPLMLQLFIGTADDRLLRPHAFYQVHRITGKTVSTTSHEAILSNTKVLEIPLLPENSMRAVIDCAGILKLRNSDIELRKGEADIGRKNTRVRLVFRVHVPQPSGRTLSLQVASNPIECSQRSAQELPLVEKQSTDSYPVVGGKKMVLSGHNFLQDSKVIFVEKAPDGHHVWEMEAKTDRDLCKPNSLVVEIPPFRNQRITSPVHVSFYVCNGKRKRSQYQRFTYLPANGNAIFLTVSREHERVGCFF",binding,[1],binds
"VF-tagged NFATc1 R484A/L485A/T551A (protein, UniProt O95644-2 1-716) MPSTSFPVPSKFPLGPAAAVFGRGETLGPAPRAGGTMKSAEEEHYGYASSNVSPALPLPTAHSTLPAPCHNLQTSTPGIIPPADHPSGYGAALDGGPAGYFLSSGHTRPDGAPALESPRIEITSCLGLYHNNNQFFHDVEVEDVLPSSKRSPSTATLSLPSLEAYRDPSCLSPASSLSSRSCNSEASSYESNYSYPYASPQTSPWQSPCVSPKTTDPEEGFPRGLGACTLLGSPRHSPSTSPRASVTEESWLGARSSRPASPCNKRKYSLNGRQPPYSPHHSPTPSPHGSPRVSVTDDSWLGNTTQYTSSAIVAAINALTTDSSLDLGDGVPVKSRKTTLEQPPSVALKVEPVGEDLGSPPPPADFAPEDYSSFQHIRKGGFCDQYLAVPQHPYQWAKPKPLSPTSYMSPTLPALDWQLPSHSGPYELRIEVQPKSHHRAHYETEGSRGAVKASAGGHPIVQLHGYLENEPLMLQLFIGTADDAALRPHAFYQVHRITGKTVSTTSHEAILSNTKVLEIPLLPENSMRAVIDCAGILKLRNSDIELRKGEADIGRKNTRVRLVFRVHVPQPSGRTLSLQVASNPIECSQRSAQELPLVEKQSTDSYPVVGGKKMVLSGHNFLQDSKVIFVEKAPDGHHVWEMEAKTDRDLCKPNSLVVEIPPFRNQRITSPVHVSFYVCNGKRKRSQYQRFTYLPANGNAIFLTVSREHERVGCFF",binding,[1],binds
"SMAD3 found with GST-SMAD4 in HEK293T cells treated with TGF-β or SB431542 (Figure 5A), P84022 1-425 (protein) MSSILPFTPPIVKRLLGWKKGEQNGQEEKWCEKAVKSLVKKLKKTGQLDELEKAITTQNVNTKCITIPRSLDGRLQVSHRKGLPHVIYCRLWRWPDLHSHHELRAMELCEFAFNMKKDEVCVNPYHYQRVETPVLPPVLVPRHTEIPAEFPPLDDYSHSIPENTNFPAGIEPQSNIPETPPPGYLSEDGETSDHQMNHSMDAGSPNLSPNPMSPAHNNLDLQPVTYCEPAFWCSISYYELNQRVGETFHASQPSMTVDGFTDPSNSERFCLGLLSNVNRNAAVELTRRHIGRGVRLYYIGGEVFAECLSDSAIFVQSPNCNQRYGWHPATVCKIPPGCNLKIFNNQEFAALLAQSVNQGFEAVYQLTRMCTIRMSFVKGWGAEYRRQTVTSTPCWIELHLNGPLQWLDKVLTQMGSPSIRCSSVS",binding,[2],binds
"NFATc1 (endogenous) (protein, UniProt O95644 1-943) MPSTSFPVPSKFPLGPAAAVFGRGETLGPAPRAGGTMKSAEEEHYGYASSNVSPALPLPTAHSTLPAPCHNLQTSTPGIIPPADHPSGYGAALDGGPAGYFLSSGHTRPDGAPALESPRIEITSCLGLYHNNNQFFHDVEVEDVLPSSKRSPSTATLSLPSLEAYRDPSCLSPASSLSSRSCNSEASSYESNYSYPYASPQTSPWQSPCVSPKTTDPEEGFPRGLGACTLLGSPRHSPSTSPRASVTEESWLGARSSRPASPCNKRKYSLNGRQPPYSPHHSPTPSPHGSPRVSVTDDSWLGNTTQYTSSAIVAAINALTTDSSLDLGDGVPVKSRKTTLEQPPSVALKVEPVGEDLGSPPPPADFAPEDYSSFQHIRKGGFCDQYLAVPQHPYQWAKPKPLSPTSYMSPTLPALDWQLPSHSGPYELRIEVQPKSHHRAHYETEGSRGAVKASAGGHPIVQLHGYLENEPLMLQLFIGTADDRLLRPHAFYQVHRITGKTVSTTSHEAILSNTKVLEIPLLPENSMRAVIDCAGILKLRNSDIELRKGETDIGRKNTRVRLVFRVHVPQPSGRTLSLQVASNPIECSQRSAQELPLVEKQSTDSYPVVGGKKMVLSGHNFLQDSKVIFVEKAPDGHHVWEMEAKTDRDLCKPNSLVVEIPPFRNQRITSPVHVSFYVCNGKRKRSQYQRFTYLPANVPIIKTEPTDDYEPAPTCGPVSQGLSPLPRPYYSQQLAMPPDPSSCLVAGFPPCPQRSTLMPAAPGVSPKLHDLSPAAYTKGVASPGHCHLGLPQPAGEAPAVQDVPRPVATHPGSPGQPPPALLPQQVSAPPSSSCPPGLEHSLCPSSPSPPLPPATQEPTCLQPCSPACPPATGRPQHLPSTVRRDESPTAGPRLLPEVHEDGSPNLAPIPVTVKREPEELDQLYLDDVNEIIRNDLSSTSTHS",binding,[3],binds
"VF-tagged NFATc1 T1, truncation of AD and RD (1-425 amino acids) (domain or fragment, UniProt O95644-2 1-425) MPSTSFPVPSKFPLGPAAAVFGRGETLGPAPRAGGTMKSAEEEHYGYASSNVSPALPLPTAHSTLPAPCHNLQTSTPGIIPPADHPSGYGAALDGGPAGYFLSSGHTRPDGAPALESPRIEITSCLGLYHNNNQFFHDVEVEDVLPSSKRSPSTATLSLPSLEAYRDPSCLSPASSLSSRSCNSEASSYESNYSYPYASPQTSPWQSPCVSPKTTDPEEGFPRGLGACTLLGSPRHSPSTSPRASVTEESWLGARSSRPASPCNKRKYSLNGRQPPYSPHHSPTPSPHGSPRVSVTDDSWLGNTTQYTSSAIVAAINALTTDSSLDLGDGVPVKSRKTTLEQPPSVALKVEPVGEDLGSPPPPADFAPEDYSSFQHIRKGGFCDQYLAVPQHPYQWAKPKPLSPTSYMSPTLPALDWQLPSHSGP",binding,[1],no binding
